# Assay results published in the antibiotic and cytotoxicity screens of Wong et al. (2023).
# The list shows a part of the results.
# Tests used:
# HSkMC = human skeletal muscle cells; experiment: cytotoxicity call (relative viability < 0.9); settings: 10 µM
# HepG2 = experiment: cytotoxicity call (relative viability < 0.9); settings: 10 µM
# S. aureus RN4220 = experiment: growth inhibition call (relative growth <= 0.2); settings: 50 µM
SMILES,cytotoxicity call (HSkMC),cytotoxicity call (HepG2),growth inhibition call (S. aureus RN4220)
CCNC(=O)[C@H]1O[C@@H](n2cnc3c(N)ncnc32)[C@H](O)[C@@H]1O,inactive,inactive,inactive
CC(=O)OC1CC2(C)C(c3ccoc3)CC3OC32C2(C)C(=O)C(O)=C3C(C)(C)C(=O)C=CC3(C)C12 (stereo unspecified),active,active,inactive
CCCCC1C(=O)NC(=S)NC1=O,inactive,inactive,inactive
C1CCN2C(C3N4CCCCN34)N2C1 (stereo unspecified),inactive,inactive,inactive
O=c1c(O)c(-c2ccc(O)c(O)c2)oc2c(O)c(O)cc(O)c12,inactive,inactive,inactive
COc1cc2c(cc1C=O)OCO2,inactive,inactive,inactive
C#CCO[C@H]1CN2CCC1CC2,inactive,inactive,inactive
NCCc1c[nH]c2ccc(OCC(=O)O)cc12,inactive,inactive,inactive
Cc1cc(C)nc(NC2=NCCN2)n1,inactive,inactive,inactive
C(=N/C12CN3CN(CN(C3)C1)C2)/c1cccnc1,inactive,inactive,inactive
O=C(NCNC(=O)N[C@H]1C(=O)NC(=O)N1CO)N[C@H]1C(=O)NC(=O)N1CO,inactive,inactive,inactive
COc1ccc(C(=O)O)cc1OC,inactive,inactive,inactive
COCCCNC(=O)C1[C@@H]2CC[C@H]1CNC2 (stereo partly specified),inactive,inactive,inactive
CC(C)Oc1ncccc1CN,inactive,inactive,inactive
OC[C@@H](O)Cc1ccc2c(c1)OCO2,inactive,inactive,inactive
COP(=O)(OC)OC(Br)C(Cl)(Cl)Br (stereo unspecified),inactive,inactive,inactive
COc1cccc(C2(N)CCCC2)c1,inactive,inactive,inactive
CC12CCC3C(CCC4(O)CC(O)CCC34C=O)C1(O)CCC2C1=CC(=O)OC1 (stereo unspecified),active,active,inactive
N[C@@H](Cn1oc(=O)[nH]c1=O)C(=O)O,inactive,inactive,inactive
CC(C)C[C@@H]1C(=O)N2CCC[C@@H]2[C@]2(O)O[C@@](NC(=O)[C@@H]3C=C4c5cccc6[nH]cc(c56)C[C@@H]4N(C)C3)(C(C)C)C(=O)N12,inactive,inactive,inactive
CCCCSP(=O)(SCCCC)SCCCC,inactive,inactive,inactive

SMILES,cytotoxicity call (HSkMC),cytotoxicity call (HepG2),growth inhibition call (S. aureus RN4220)
C[C@@H]1O[C@@H](OC(=O)Cc2ccccc2)[C@H](O)[C@H](O)[C@H]1O,inactive,inactive,inactive
O=C(O)C(Cl)Cl.[NaH],inactive,inactive,inactive
O=C1[O][Pt]2([NH][C@@H]3CCCC[C@H]3[NH]2)[O]C1=O,active,inactive,inactive
CCC1(c2ccc(N)cc2)CCC(=O)NC1=O (stereo unspecified),inactive,inactive,inactive
C[C@@H](N)Cc1ccc(O)cc1,inactive,inactive,inactive
Cl.NCCc1c[nH]c2ccc(O)cc12,inactive,inactive,inactive
C[C@H]1C(=O)O[C@@H]2CCN3CC=C(COC(=O)[C@](C)(O)[C@]1(C)O)[C@H]23,inactive,inactive,inactive
Cc1[nH]c2ccccc2c1CCN,inactive,inactive,inactive
Cn1cc(NC(=O)c2cc(NC(=O)CNC(=N)N)cn2C)cc1C(=O)NCCC(=N)N,inactive,inactive,inactive
Cc1cc(O)c2c(=O)c3c(O)cc(O)c4c5c(O)cc(O)c6c(=O)c7c(O)cc(C)c8c1c2c(c34)c(c78)c65,active,active,inactive
Oc1ccc(Cl)cc1Cc1cc(Cl)ccc1O,inactive,active,inactive
O=S1(=O)COC2(CNC2)CN1,inactive,inactive,inactive
S=C=NCc1ccccc1,inactive,active,inactive
NCCc1cccc2ccccc12,inactive,inactive,inactive
Fc1ccc(Oc2ccnc3cc(Cl)cc(Cl)c23)cc1,inactive,inactive,inactive
COC(=O)[C@]1(Cc2ccccc2N=[N+]=[N-])N=C(c2ccc(OCCCO)cc2)O[C@@H]1c1ccccc1N=[N+]=[N-],active,active,inactive
CO[C@@H]1C=C[C@@H]2[C@H]1N2CCCO (stereo partly specified),inactive,inactive,inactive
O=C1O[C@H]2CN[C@@H]1C2,inactive,inactive,inactive
ClC1C(Cl)C(Cl)C(Cl)C(Cl)C1Cl (stereo unspecified),inactive,inactive,inactive
CC(=O)OCC1=C(C(=O)O)N2C(=O)[C@@H](NC(=O)CCC[C@@H](N)C(=O)O)[C@@H]2SC1,inactive,inactive,inactive
C[N+]1([O-])C2CCC1CC(OC(=O)C(CO)c1ccccc1)C2 (stereo unspecified),inactive,inactive,inactive
